# Where “and” joins values, the source holds several entries; their conditions need not be identical. Identical values can stand only once. Among all 420,000 compounds or so, about 50,000 (12%) were called active. The shares of active, inactive and inconclusive entries below differ from those in the screen. The call rests on the fitted dose curve; in most records, active means well fitted inhibition curve with a large enough effect; inconclusive means small, poorly fitted or top-dose-only effect; inactive means flat fitted curve, though single readings scatter. Potencies of inconclusive entries are left out as doubtful fits.
# Assay: qHTS for Inhibitors of human tyrosyl-DNA phosphodiesterase 1 (TDP1): qHTS in cells in presence of CPT; further: nearly all actives have a fitted effect of over 55% in size
# Settings: chicken DT40 Tdp1-/-;hTDP1 cells + 20 nM CPT, ATP luminescence, 48 h; activity change, negative = growth inhibition: at 46.2 µM (top of the series) unless noted
# Summary of the method: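 Cell growth measured by CellTiter-Glo luminescence after a minimum 48 h, 37 C compound exposure with 20 nM CPT in Tdp1-knockout DT40 cells stably expressing hTDP1, seeded 400/well; qHTS titration format.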
# On the % scale 0 is the no-effect control and ±100 the full control effect; potency means the concentration at half of the fitted maximal effect; tags describe the fitted curve by direction and shape.
SMILES,Potency,"activity change, negative = growth inhibition"
O=C(Nc1ccc(-c2ccc3nncn3n2)cc1)C1CCCC1,"inconclusive [inhibitor, single point]",
COc1cc(OC)cc(-c2c(C#Cc3ccsc3)c3cc(-c4cc(OC)c(OC)c(OC)c4)ccc3n2C)c1,,inactive: -12.9%
O=C(NC(c1ccccc1)c1cnccn1)C1CCN(Cc2ccc(Cl)c(Cl)c2)CC1 (stereo not given),active: 9.2 µM,
Cc1nnc(NCc2ccccc2)c2ccccc12,,inactive: 9.52%
CCC(=O)N(Cc1cc2ccc(C)cc2[nH]c1=O)c1ccccc1OC,"inconclusive [inhibitor, partial curve]",
CC(C)NC(=O)C1(C)CCN1C(=O)C1(c2ccccc2)CCCC1 (stereo not given),"inconclusive [inhibitor, single point]",
Cc1ccc(C)c(N2CCN(C(=O)C(Cc3ccccc3)n3cccc3)CC2)c1 (stereo not given),active: 23.1 µM,
C/C(=N\NC(=O)CCc1c[nH]c2ccccc12)c1ccc([N+](=O)[O-])cc1,"inconclusive [inhibitor, single point]",
COc1ccc(Nc2nc3c(C)cccn3c(=O)c2C=NCc2ccccc2)cc1,"inconclusive [inhibitor, single point]",
COc1ccc(CCNC(=O)c2cc3sc(Cl)cc3n2C)cc1OC,"inconclusive [inhibitor, single point]",
Cc1ccc(NC(=O)[C@H](NC(=O)[C@@H]2Cc3ccccc3CN2)c2ccccc2)c(C)c1,"inconclusive [inhibitor, partial curve]",
Cc1c(N2C(=O)/C(=C3\C(=O)N(CC(=O)O)c4ccccc43)SC2=S)c(=O)n(-c2ccccc2)n1C,"inconclusive [inhibitor, single point]",
CC(C(=O)NCC1CCCCC1)N(C)Cc1ccc(Cl)cc1 (stereo not given),"inconclusive [inhibitor, single point]",
O=c1[nH]nc(-c2cc(-c3ccccc3)nc3ccccc23)o1,,inactive: -6.32%
Cc1ccc(S(=O)(=O)Nc2cccc(C(=O)NCc3cccnc3)c2)cc1F,"inconclusive [inhibitor, full curve, poor fit]",
O=C(Nc1ccc(F)cc1)C(CCc1ccccc1)N1CCN(C(=O)c2ccco2)CC1 (stereo not given),"inconclusive [inhibitor, single point]",
CC(=O)Nc1ccc(Sc2ccccc2C(=O)N2CCCC2)cn1,,inactive: -23.3%
CCCN(C(=O)c1cn(-c2ccccc2)nc1-c1ccc(OC)cc1)C1CCS(=O)(=O)C1 (stereo not given),,inactive: -1.64%
CCN(CC)c1ccc(NC(=O)c2cc3c(OC)cccc3[nH]2)cc1,"inconclusive [inhibitor, single point]",
O=S1(=O)C=C(Sc2nc3ccccc3s2)c2ccccc21,active: 0.82 µM,
Cc1ccc(CSCc2ccc(C(=O)NC3CC3)o2)cc1,"inconclusive [inhibitor, single point]",
CC1=NOC(=O)/C1=C\c1ccc(-c2ccc(Br)cc2)o1,active: 13 µM,
CC1(C)Cc2ccccc2C(/C(=N\Nc2cccc(Cl)c2)C(N)=O)=N1,"inconclusive [inhibitor, single point]",
O=C(NCCc1cccs1)C1CC(c2c(Cl)cccc2Cl)=NO1 (stereo not given),active: 4.11 µM,

SMILES,Potency,"activity change, negative = growth inhibition"
CC(C)(C)OC(=O)CNC(=O)c1[nH]cnc1C(=O)N[C@@H](CCCCN)C(=O)OC(C)(C)C,,inactive: -1.96%
COc1ccc(S(=O)(=O)N2CCC(n3cnc4cc(C(F)(F)F)ccc43)CC2)cc1,"inconclusive [inhibitor, single point]",
CN1CCN(CC(O)(c2ccc(Cl)cc2)c2ccc(Cl)cc2)CC1,"inconclusive [inhibitor, single point]",
CC1(C)N=C(N)N=C(N)N1c1ccccc1,active: 0.731 µM,
COc1ccc(S(=O)(=O)N2CCN(CCOc3ccc(Br)cc3)CC2)cc1OC,"inconclusive [inhibitor, single point]",
COc1ccc(OC)c(NC(=O)CSc2nc3n[nH]c(C)c3c(=N)n2-c2cccc(Cl)c2C)c1,"inconclusive [inhibitor, single point]",
CN(CC(=O)Nc1cccc(F)c1)C(=O)c1ccccc1CCc1ccccc1,active: 14.6 µM,
COc1ccc(CC(=O)Nc2ccc(OC(C)=O)cc2C(=O)O)cc1,,inactive: -4.73%
Nc1c(C(=O)NCCN2CCOCC2)c2nc3ccccc3nc2n1-c1ccc2c(c1)OCO2,"inconclusive [inhibitor, partial curve]",
CC(C)Oc1ccc(CC(=O)NNC(=S)Nc2ccccc2)cc1,"inconclusive [inhibitor, single point]",
CCOCCCNC(=O)Cn1cnc2c(cnn2-c2ccc(OC)cc2)c1=O,"inconclusive [inhibitor, single point]",
Cc1c(Cl)cccc1NC(=O)CSc1nc(=O)n(CCCN2CCOCC2)c2c1CCCC2,,inactive: -26.8%
O=C(Cn1cnc2ccccc2c1=O)OCCCCN1C(=O)c2ccccc2C1=O,"inconclusive [inhibitor, partial curve]",
CCC1=Nc2cc(C(=O)NCc3ccccc3Cl)ccc2Sc2ccc(C)cc21,active: 5.17 µM,
Cc1ccc(-n2nc(CO)c(C(=O)NCc3cccnc3)n2)cc1C,"inconclusive [inhibitor, partial curve]",
O=C(C(Cc1ccc(Cl)cc1)NS(=O)(=O)c1ccccc1)N1CC[C@@]2(O)CCCC[C@H]2C1 (stereo not given in full),"inconclusive [inhibitor, single point]",
COc1ccc(S(=O)(=O)c2cn(C)c3cc(N4CCCCCC4)c(F)cc3c2=O)cc1,active: 18.4 µM,
Cc1cc(C)n(/N=C/c2c[nH]c3ccccc23)c(=O)c1C#N,,inconclusive: -31.9% [inhibitor]
CCOC(=O)C=Cc1ccc(C(=O)OCC)[nH]1,active: 13 µM,
COc1ccc(NC(=O)CSC2=Nc3ccccc3C3=NC(CCC(=O)NC4CCCCC4)C(=O)N23)cc1Cl (stereo not given),"inconclusive [inhibitor, single point]",
COc1ccc(CN(C)C(=O)COC(=O)c2cc([N+](=O)[O-])ccc2N2CCCC2)c(OC)c1OC,"inconclusive [inhibitor, single point]",
COc1ccc(-n2c(C)nc3c(cnn3-c3ccc(C)cc3)c2=O)cc1,active: 14.6 µM,
CCOc1ccccc1CNS(=O)(=O)c1ccc(-c2cnc(C3CC3)o2)cc1,active: 651 nM and active: 820 nM,
O=C1NC[C@H](CCCCN2CCN(CCc3ccccc3)C(=O)C2=O)N(CCc2ccccc2)C1=O,,inactive: -1.61%

SMILES,Potency,"activity change, negative = growth inhibition"
O=C1CCC(C(=O)Nc2cccc(Oc3ccccc3)c2)=NN1,"inconclusive [inhibitor, single point]",
COc1cc(NC(=O)CN2C(=O)COc3ccc(S(=O)(=O)N4CCOCC4)cc32)cc(OC)c1,,inactive: -7.18%
CN(C)C(CNC(=O)c1cccc(S(=O)(=O)N2CCc3ccccc3C2)c1)c1ccccc1 (stereo not given),"inconclusive [inhibitor, single point]",
Cc1cc[n+](CC(=O)c2ccc(F)cc2)c2ccccc12,"inconclusive [inhibitor, single point]",
FC(F)(F)c1cccc(CN2CCC(c3cc(-c4cccs4)n[nH]3)CC2)c1,active: 8.2 µM,
O=C(Nc1cc(F)ccc1F)C1CCN(C(=O)c2cnn(-c3ccccc3)c2-n2cccc2)CC1,"inconclusive [inhibitor, single point]",
CCn1c(CNc2ccccc2Cl)nnc1SCC(=O)NCc1ccccc1,"inconclusive [inhibitor, full curve, poor fit]",
NS(=O)(=O)c1ccc(CCNC(=O)CN2CCN(Cc3cccc(C(F)(F)F)c3)CC2)cc1,active: 23.1 µM,
C=CCNC(=S)Nc1ccc(Cl)c(S(=O)(=O)N2CCOCC2)c1,,inconclusive: -30.4% [inhibitor]
Cc1ccc(-c2noc(C3CCCN(C(=O)c4ccc(C(C)(C)C)cc4)C3)n2)o1 (stereo not given),"inconclusive [inhibitor, single point]",
CC(C)N(C1=N/C(=C\c2ccco2)C(=O)N1c1ccccc1)C(C)C,active: 13 µM,
CSc1ncccc1C(=O)N1CCCC(CCC(=O)NCc2ccc(F)c(F)c2)C1 (stereo not given),"inconclusive [inhibitor, single point]",
O=C(CN1CCN(Cc2ccccc2)CC1)NNC(=O)c1ccccc1,,inactive: -0.707%
O=C(COc1ccccc1Br)Nc1ccc(S(=O)(=O)N2CCCC2)cc1,"inconclusive [inhibitor, single point]",
O=C(CSc1ncnc2nc[nH]c12)Nc1ccccc1C(F)(F)F,,inactive: -16.4%
CC(NC(=O)c1cccs1)c1nnc(SCc2ccc(Cl)cc2Cl)n1C (stereo not given),"inconclusive [inhibitor, single point]",
O=C1Nc2ccccc2C(=O)C1(Cl)Cc1ccccc1 (stereo not given),active: 6.51 µM,
COc1ccc(S(=O)(=O)N2CCN(C(=O)c3ccco3)CC2)cc1C(C)(C)C,"inconclusive [inhibitor, single point]",
Cc1ccc(NC(=O)CN2CCc3ccccc3C2)cc1,,inactive: -11.7%
COC(=O)c1ccc(NC(=O)CSc2nccn2CCc2ccccc2)cc1,"inconclusive [inhibitor, single point]",
O=C(CCCn1c(=O)c2ccccc2n(Cc2ccccc2)c1=O)NCc1ccco1,active: 11.6 µM,
CCN(CC)S(=O)(=O)c1ccc(-c2nnc(SCC(=O)N3c4ccccc4CC3C)o2)cc1 (stereo not given),active: 20.6 µM,
